Over roughly 33,000 sequences, “E-score (-0.5 to 0.5)” has its median near -0.035; the highest 2% begin near 0.34. The list shows a part of the results.
target: T1, Mot3 (UniProt P54785); assay: PBM E-score (8-mer binding enrichment) (E-score (-0.5 to 0.5)); higher = stronger / more preferred TF binding; most listed sequences are background and not binding sites; conditions: protein concentration: 200 nM; construct: GST-full length
T1 sequence: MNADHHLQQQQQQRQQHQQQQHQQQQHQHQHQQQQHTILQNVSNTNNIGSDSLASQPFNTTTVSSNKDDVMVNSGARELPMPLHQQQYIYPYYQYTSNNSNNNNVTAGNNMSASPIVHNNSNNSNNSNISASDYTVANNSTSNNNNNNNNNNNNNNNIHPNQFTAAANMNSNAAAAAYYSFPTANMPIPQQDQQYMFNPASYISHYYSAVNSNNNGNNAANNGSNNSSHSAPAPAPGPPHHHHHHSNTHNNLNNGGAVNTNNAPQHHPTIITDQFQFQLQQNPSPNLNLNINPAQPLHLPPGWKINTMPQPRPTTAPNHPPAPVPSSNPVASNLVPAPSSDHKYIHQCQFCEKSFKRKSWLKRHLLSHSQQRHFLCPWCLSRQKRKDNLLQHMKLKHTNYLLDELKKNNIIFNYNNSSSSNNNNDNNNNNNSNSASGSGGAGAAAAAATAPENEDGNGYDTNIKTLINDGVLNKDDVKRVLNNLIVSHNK
Experimental: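 Universal 'all 10-mer' protein binding microarrays (Agilent AMADID 015681) probed with GST-tagged S. cerevisiae TFs (full-length or DBD) made by in vitro transcription/translation (PURExpress), about 100-200 nM. Bound TF was detected with fluorescent anti-GST. Each ungapped 8-mer (which stands for itself and its reverse complement) is scored by the PBM enrichment score (E-score), a modified Wilcoxon-Mann-Whitney statistic from -0.5 to +0.5, computed with the Universal PBM Analysis Suite. Scale: above 0.35 generally sequence-specific binding.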

Row | Sequence | PBM E-score
1 | GAACGCAA | 0.041
2 | ACCAGCGT | -0.0988
3 | CCCAATCG | -0.208
4 | GATGATAA | 0.0113
5 | AACTGAGA | -0.0277
6 | ATTCAAGG | 0.0502
7 | GGGCAACA | 0.145
8 | CACAAGCA | 0.189
9 | AGAAGTTA | 0.0384
10 | AGGCCCGG | -0.0971
11 | CCCCCGAG | -0.352
12 | AGCGTACA | 0.0513
13 | ATCATGGG | -0.0935
14 | ATCACGCG | 0.05
15 | AAGGGCCC | -0.307
16 | AAAAGGTG | 0.127
17 | ATACTAGG | -0.00956
18 | CGGACGGA | -0.133
19 | GGGGTTAA | -0.0764
20 | CACGTCCG | -0.179
21 | AGAGTTTA | 0.116
22 | AGAGACAT | 0.0131
23 | AGTGACGA | 0.00248
24 | ACAATTAG | 0.00046
25 | CCCGCACC | -0.318

Row | Sequence | PBM E-score
26 | GATCATCC | -0.216
27 | ATGTTCCG | -0.00735
28 | AACCGGAT | 0.0805
29 | ACAAGGCC | 0.0968
30 | CTTATACA | 0.199
31 | AGCTGGAT | -0.15
32 | CTGATTTA | 0.129
33 | GGTAAGAC | -0.126
34 | CTCAAATA | -0.0121
35 | GAGTGTAC | 0.0789
36 | GTAGCACA | -0.0448
37 | AAACTGGT | -0.188
38 | CCTTGAAC | 0.197
39 | GACACTGA | -0.101
40 | ACCAATCC | -0.0847
41 | CGTCCCCC | -0.235
42 | ACGGTGTA | 0.225
43 | AGTCGTTA | -0.143
44 | GCGGAAAC | -0.334
45 | CCTTGTTA | 0.24
46 | ATACCATC | 0.0128
47 | ATCTGATG | -0.2
48 | ATAATCGG | 0.0441
49 | ACTCCTCG | -0.0921
50 | ACAGTGCG | -0.0961

Row | Sequence | PBM E-score
51 | GAGCGATA | -0.198
52 | CTAGTTGC | 0.0541
53 | AAGAATAT | -0.0497
54 | GCGCACAA | 0.104
55 | GACTACAA | 0.0845
56 | ACGAGCGA | 0.00046
57 | CAGGAGGA | -0.0317
58 | GAATGGCA | -0.153
59 | ATCTCGAC | 0.0161
60 | CGCAGATA | -0.072
61 | GTATCTAA | 0.105
62 | TCCGTACA | 0.0405
63 | GAACATAC | 0.248
64 | ACAAAAAC | 0.143
65 | GGCAACAC | 0.286
66 | AGGCAGTA | 0.108
67 | TAACGAAA | 0.0665
68 | ACTCCCCC | -0.243
69 | ACTTGAAC | 0.0546
70 | GTGACGCA | -0.125
71 | AAGTATAC | 0.0723
72 | ACGTCTGG | -0.00636
73 | CACTAATG | -0.0604
74 | ACCAGTCT | -0.195
75 | ACTCTTCA | 0.0297

Row | Sequence | PBM E-score
76 | ACCGGTTG | -0.184
77 | CGTCTCTC | -0.12
78 | CACAGCGA | 0.0949
79 | CCGTTACC | 0.0706
80 | ATACGCTA | -0.062
81 | AGACGGAG | -0.238
82 | GATATGAA | 0.0169
83 | GTCGAATA | -0.052
84 | CATAATGG | -0.289
85 | ATCTTAGA | -0.123
86 | ATTATGTA | 0.339
87 | AAACGAAG | 0.104
88 | CGACGTTC | -0.126
89 | GATCAAAA | -0.165
90 | GCGACTCC | -0.251
91 | TGTCATAA | 0.246
92 | CTCTGCAA | -0.0788
93 | ATTCCTAA | 0.105
94 | TGGCTAAA | -0.141
95 | GTAAAAAA | 0.262
96 | GTGCGCCA | -0.267
97 | AACACGGC | 0.257
98 | AGTCTGGG | -0.187
99 | AACTCTTG | 0.0424
100 | ATAAGGCC | -0.142

Row | Sequence | PBM E-score
101 | AGCAATGC | -0.16
102 | AGTCGATA | -0.136
103 | AGATGGGA | -0.204
104 | AGACAGAT | -0.0373
105 | CGTAACAG | 0.0994
106 | ACGGGGAG | -0.244
107 | ATTCAAAG | -0.117
108 | CGCGGGTC | 0.069
109 | ATCATGCG | -0.103
110 | ATCCTACA | 0.134
111 | CGCAAGGC | 0.12
112 | CGGAGCAC | -0.102
113 | CAGACCTA | -0.0525
114 | AACTCCGC | -0.187
115 | CAACGACA | 0.139
116 | CCTTAGTA | 0.0101
117 | AGTTCGAG | -0.0327
118 | AAATTCAC | 0.0912
119 | GGGCGCAA | -0.0882
120 | GGATTATA | -0.0989
121 | AACGTCAC | -0.037
122 | ATGATCCC | -0.289
123 | CACCGAAG | -0.0379
124 | GATAAATA | 0.0383
125 | GGCTAAAC | -0.0443

Row | Sequence | PBM E-score
126 | TGGTTGAA | -0.00559
127 | GGATCACA | 0.0449
128 | AGAGATGG | 0.0575
129 | ACAAATCA | 0.0837
130 | GTGATAAC | 0.109
131 | TAGAGAGA | -0.0698
132 | CCCCAGGG | -0.192
133 | CTCCAACC | 0.0855
134 | CGGTTCTA | -0.141
135 | ATGCCCAC | -0.15
136 | CAATTGCC | 0.175
137 | GCGTCGCC | -0.0655
138 | CACCGCCA | -0.135
139 | CAACCAAG | -0.047
140 | CGGGGGCA | -0.202
141 | CAAAAACG | 0.152
142 | CTCGAAAA | -0.084
143 | AAACCCTA | -0.01
144 | ACCTCTGG | -0.0514
145 | CAGACCCC | -0.255
146 | ACATGAGC | 0.24
147 | GAACGATA | -0.00294
148 | AGTAACAG | 0.0866
149 | GACGAATC | -0.0626
150 | CGCTCATA | -0.225

Row | Sequence | PBM E-score
151 | AGATACCC | -0.164
152 | AAGCCCGG | -0.302
153 | TACGCCGA | -0.0818
154 | GGTACCGA | 0.00801
155 | CACAGCTG | -0.0873
156 | CTCACGGC | -0.0783
157 | ATTGTACC | 0.0661
158 | AGTCTTAG | -0.168
159 | CAGTTAGG | 0.0993
160 | GGCACTTA | 0.282
161 | AAATAGGG | 0.16
162 | CGCACTGC | -0.0709
163 | AAATTTAC | 0.291
164 | GAAAAACC | 0.0532
165 | CTCGGTGC | -0.0378
166 | AACCATCG | 0.114
167 | AGCTCAGC | -0.206
168 | AAGCGGGG | -0.0612
169 | CGTTTAAG | 0.0675
170 | ACGCAGGG | 0.158
171 | GTGAATCA | 1e-05
172 | AACTGTAC | -0.0246
173 | AGCGAATA | -0.188
174 | TCAATGCA | 0.0286
175 | CTGATGTA | 0.06

Row | Sequence | PBM E-score
176 | AAATGTGT | 0.215
177 | AGACGTCT | -0.264
178 | ACCAGGGT | -0.31
179 | CAGAATGG | -0.224
180 | GGGTAAAC | -0.0508
181 | GAACAGTA | 0.0147
182 | ACCTTGAG | 0.046
183 | CCGGCCCC | -0.378
184 | GTTATACA | 0.295
185 | GAGGGGAA | -0.296
186 | CGATTCTC | -0.141
187 | ACGTACTA | 0.158
188 | GCGCTCCA | -0.136
189 | CCTACTCC | 0.0732
190 | GACCCGCA | -0.139
191 | ATTAAACC | 0.0249
192 | ATTCTTGG | -0.0632
193 | GGACTTGA | -0.278
194 | CGGACGAA | -0.0412
195 | ACGGGCCC | -0.168
196 | GGCCCACC | -0.222
197 | AGACCCCT | -0.181
198 | ATCAATGA | 0.111
199 | GAAGGTCA | 0.031
200 | CCGTTCAC | -0.251

Row | Sequence | PBM E-score
201 | CCTACGAA | 0.132
202 | CGACGGAG | -0.151
203 | ATTGATGG | 0.0374
204 | CACCGGTG | -0.379
205 | CTTGTGTA | 0.333
206 | CCGAAAGA | -0.0786
207 | CGCATCGC | -0.268
208 | GAATCTCC | -0.126
209 | CCCTTCTC | -0.136
210 | ACCTCCTC | -0.15
211 | CTAGTAAC | 0.0483
212 | GACAATAA | -0.0186
213 | CGACACTC | -0.168
214 | ATCCTCCG | -0.354
215 | ATCGTCGC | 0.0287
216 | CAGCGCGG | -0.14
217 | GCCCCACA | -0.15
218 | AAAGAGCG | -0.247
219 | AACAAGCC | 0.0347

Source: the supplement of paper PMC3334620
